Laboratory results: publication PMC4336329 (PLoS ONE, 2015)
Among all 310,000 compounds or so, about 14,000 (4.5%) showed an effect of 50% or more. Effects have a minus sign here. The list shows a part of the results.

The compounds below were run against human ether-à-go-go-related gene (hERG) potassium channel (human, UniProt Q12809) (assay: primary screen, population patch clamp on CHO cells stably expressing hERG).
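Note: peak tail current of the secondary pulse compared with the same well before compound.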

human ether-à-go-go-related gene (hERG) potassium channel, sequence (Q12809 whole entry, looked up): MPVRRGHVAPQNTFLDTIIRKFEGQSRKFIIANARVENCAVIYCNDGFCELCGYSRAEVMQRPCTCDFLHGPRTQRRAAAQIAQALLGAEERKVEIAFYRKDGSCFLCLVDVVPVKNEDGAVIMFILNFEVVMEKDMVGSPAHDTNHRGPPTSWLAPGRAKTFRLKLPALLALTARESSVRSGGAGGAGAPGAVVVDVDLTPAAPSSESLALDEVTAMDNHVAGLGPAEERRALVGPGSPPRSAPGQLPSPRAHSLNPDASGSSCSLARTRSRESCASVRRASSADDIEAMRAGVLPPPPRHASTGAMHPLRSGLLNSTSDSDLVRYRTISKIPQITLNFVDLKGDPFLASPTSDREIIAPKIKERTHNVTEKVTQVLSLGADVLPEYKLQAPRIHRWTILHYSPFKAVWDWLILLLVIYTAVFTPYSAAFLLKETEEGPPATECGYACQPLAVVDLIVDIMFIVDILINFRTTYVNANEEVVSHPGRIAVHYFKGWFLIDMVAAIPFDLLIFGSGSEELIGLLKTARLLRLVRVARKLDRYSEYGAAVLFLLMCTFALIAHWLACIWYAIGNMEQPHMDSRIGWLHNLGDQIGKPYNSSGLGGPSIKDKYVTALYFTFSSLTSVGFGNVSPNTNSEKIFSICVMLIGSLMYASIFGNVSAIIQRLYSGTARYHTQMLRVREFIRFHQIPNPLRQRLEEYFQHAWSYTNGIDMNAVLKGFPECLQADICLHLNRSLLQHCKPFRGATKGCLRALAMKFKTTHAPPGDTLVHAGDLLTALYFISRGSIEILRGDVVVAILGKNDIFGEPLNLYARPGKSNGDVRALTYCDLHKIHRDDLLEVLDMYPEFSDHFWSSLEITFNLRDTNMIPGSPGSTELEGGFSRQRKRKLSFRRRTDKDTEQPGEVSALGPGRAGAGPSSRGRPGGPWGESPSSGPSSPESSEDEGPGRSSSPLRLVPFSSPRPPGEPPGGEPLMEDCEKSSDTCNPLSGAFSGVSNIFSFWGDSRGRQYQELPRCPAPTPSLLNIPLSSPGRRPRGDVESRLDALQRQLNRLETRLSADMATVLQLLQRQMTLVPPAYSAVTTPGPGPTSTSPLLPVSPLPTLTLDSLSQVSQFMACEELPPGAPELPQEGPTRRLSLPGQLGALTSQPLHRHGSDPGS

Compound	hERG current change (%, negative = inhibition) at 10uM [%]
Cn1cccc1CC(=O)N/N=C/c1cccc([N+](=O)[O-])c1	29.2
O=C(O)[C@H](Cc1ccccc1)NC(=O)N1CCN(c2ccc(F)cc2)CC1	-11.6
O=C(CCCn1c(SCC(=O)c2ccc(O)c(O)c2)nc2ccccc2c1=O)NCC1CCCO1 (stereo not shown)	6.99
CC(=O)c1c(C)[nH]c(C(=O)COC(=O)c2cccc(S(=O)(=O)N(C)c3ccccc3)c2)c1C	14.6
S=c1[nH]nc(CSCc2ccccc2Cl)n1-c1ccccc1	0.868
Cc1csc2nc(COC(=O)CNC(=O)c3ccc(Cl)cc3)cc(=O)n12	-26.4
COc1ccc(-c2csc(NC(=O)CN3C(=O)NC4(CCCC4)C3=O)n2)c(OC)c1	-10.9
O=C(O)c1ccccc1NC(=O)N1C[C@H]2C[C@@H](C1)c1cccc(=O)n1C2	3.86
CCN(Cc1cc(=O)[nH]c2ccccc12)C(=O)c1ccc(C)cc1	-2.45
Cc1cccc(NCc2ccc(O)c3ncccc23)c1	18.9
O=C1CCC(C(=O)OC(C(=O)Nc2cc(Cl)cc(Cl)c2)c2ccccc2)=NN1 (stereo not shown)	14.8
COc1cccc(NC(=O)C2CCCCC2)c1	-1.23
O=C(Nc1ccc(CN2CCOCC2)cc1)c1ccc(Br)cc1	3.54
Cc1ccc(S(=O)(=O)/C(C#N)=C/c2c(N3CCN(C)CC3)nc3ccccn3c2=O)cc1	-59.1
O=C(NCCc1ccccc1)c1nnc(CS(=O)(=O)c2ccccc2)o1	-29.3
Cc1cccc(C)c1NC(=O)CNc1ccccc1	5.02
CCC(C)NC(=O)c1cnc2n(c1=O)CCS2 (stereo not shown)	12.2
CCOC(=O)NC(=O)c1cn(Nc2ccccc2)c(=O)[nH]c1=O	12.9
O=c1c2ccccc2nnn1CCN1CCOCC1	13.1
CCOC(=O)CNNC(=O)Nc1ccc(Cl)c(Cl)c1	8.36
CN(C(=O)c1ccc2ccccc2c1)c1ccccn1	10.7
Cl.O=C(O)CNc1nc(-c2ccccc2)nc2ccccc12	20.4
CC1(c2ccccc2)NC(=O)N(CC(=O)N2CCN(S(=O)(=O)c3cccs3)CC2)C1=O (stereo not shown)	1.27
O=[N+]([O-])c1ccccc1OC/C(=N\O)c1ccccc1	2.28
COc1cccc(/C(C)=N/Nc2ccc(S(=O)(=O)N3CCCCC3)cn2)c1	-16.1
